# The supplement of paper PMC5499739
# Whole data set: some 16,000 sequences, median “Z-score” near -0.37, cut for the highest 2% near 3.1. The list shows a part of the results.
# System: RBM10 RRM1-ZnF-RRM2 (GST-tagged construct)
# Assay: RNAcompete 7-mer binding Z-score; higher = stronger binding preference
# Description: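 RNAcompete: 20 pmol GST-tagged RBM10 RNA-binding constructs were incubated with a designed RNA pool of about 241,000 sequences up to 41 nt (1.5 nmol) on glutathione beads for 30 min at 4 °C and washed. Bound RNAs were identified by microarray hybridisation. Each RNA 7-mer is scored by a one-sided Z-score of its enrichment, computed over probes that contain the 7-mer within longer pool sequences.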
row,Sequence,RNAcompete 7-mer binding Z-score
1,AUAUGUA,-0.144
2,AUAGUCG,-0.00148
3,GAGUCGA,0.68
4,UGCCGAA,-0.424
5,CAGUGAG,1.5
6,AUCCUUC,-0.734
7,GCCACCU,-0.777
8,GGAAUCG,1.15
9,GAUCUUG,-0.675
10,GCCUAGG,0.0422
11,CAGUGCU,-0.216
12,CAACUAG,-0.355
13,GCAAGGC,0.541
14,AGGACGU,0.574
15,AGCAUAU,-0.435
16,UUCCUCG,-0.715
17,AGCUGGA,0.672
18,AUAUUUG,-0.449
19,AGAUGAU,0.177
20,AAUCGAC,-0.373
21,GCCAAAG,-0.0743
22,AACGUAA,-0.202
23,AAUGCUG,-0.0197
24,CGGCUAC,-0.577
25,UUUUUUG,-0.464

row,Sequence,RNAcompete 7-mer binding Z-score
1,AUAAUCC,-0.73
2,GGGAAAC,2.51
3,UAAUCGG,0.115
4,AUGAGCA,0.497
5,UAUAGCG,0.0823
6,AGCUAUC,-0.679
7,UGUCGAC,-0.5
8,CUUUCAA,-0.792
9,GUCGCAA,-0.351
10,GCAAUAG,0.84
11,CGAUCUA,-0.715
12,UUGUGCA,-0.449
13,CUAUUAG,-0.468
14,CGUCAUG,-0.355
15,CUAACUA,-0.599
16,AUCUUCA,-0.876
17,UUUUUGC,-0.795
18,CGUUCGC,-0.668
19,UGUGGAC,0.942
20,AGUUGCU,-0.486
21,CUAAUGC,-0.795
22,GUCUACG,-0.278
23,GUCGACU,-0.435
24,UGGUGCA,0.953
25,UAAACAA,-0.311

row,Sequence,RNAcompete 7-mer binding Z-score
1,UCUCCCC,-0.701
2,UACAAGC,-0.38
3,ACAUUAC,-0.42
4,UUAACGC,-0.694
5,GAGUACC,0.0167
6,CCUUCGA,-1.05
7,GGGCGGU,2.58
8,UCCGAGG,0.428
9,AGGGAUA,4.38
10,CGUGGAA,1.29
11,GCUUUAC,-0.719
12,CAAAGUU,-0.409
13,ACGUCAU,-0.581
14,CCGCAUU,-0.905
15,AGGUCUG,-0.256
16,UGCUGUC,-0.548
17,UGUUACG,-0.253
18,UAUACUU,-0.719
19,CCCAUGC,-0.785
20,UUCGUGC,-0.541
21,CUGUCGC,-0.781
22,AUGGCGG,2.49
23,GCUGUCC,-0.65
24,UUAACUG,-0.402
25,GGAUCAC,0.217

row,Sequence,RNAcompete 7-mer binding Z-score
1,GAACCUG,-0.683
2,CGUGUUC,-0.781
3,CUACCCC,-0.639
4,GUUGGGC,2.33
5,CCCCCUG,-0.551
6,GAAGCUC,-0.562
7,GACAGUA,-0.0488
8,GAACUAU,-0.482
9,CAUCUCG,-0.73
10,AUUUCAA,-0.559
11,GAAAUGU,0.297
12,GACCUUG,-0.887
13,UGGCUGU,-0.326
14,CUAAGCC,-0.967
15,UCUAGUU,-0.686
16,CUCCUAG,-0.646
17,CCCUUUG,-0.952
18,AAGCUUA,-0.544
19,AUGCUAA,-0.592
20,CAUACUU,-0.73
21,UCUUGGG,0.162
22,UUCGGGG,1.47
23,GAGUUAA,0.417
24,AGAAUGA,0.275
25,GCGCUAC,-0.0925

row,Sequence,RNAcompete 7-mer binding Z-score
1,ACGACGA,-0.384
2,GGGAUGC,2.65
3,CCCCUCC,-0.362
4,CACUUGU,-0.825
5,GAACUUC,-0.668
6,AAUAGCC,-0.562
7,AAUCCUC,-0.766
8,CCAGUGG,1.12
9,UGUGCAG,0.264
10,CUACAUG,-0.599
11,GUCUCGU,-0.413
12,CAGGUUA,1.16
13,UUGCAGU,-0.53
14,GAGAUAA,0.45
15,GCCCCGA,-0.584
16,CGAUAGC,-0.333
17,UUAAUGG,1.08
18,GGAACGU,1.27
19,CUACGUA,-0.406
20,AUUGUUA,-0.369
21,UUGCUAA,-0.541
22,CUGGCCG,-0.428
23,AUAUUGC,-0.566
24,GGGUUGG,4.05
25,CAUGGCG,0.785

row,Sequence,RNAcompete 7-mer binding Z-score
1,CGAGUAC,-0.0415
2,AGGCCCG,-0.759
3,UUUGAGU,-0.213
4,CAUCAAC,-0.391
5,AAUUAGC,-0.278
6,AGUCGGU,0.745
7,GUCGAGC,0.348
8,ACAACAA,-0.184
9,GGCAUGA,0.876
10,GGAAUGC,1.43
11,AACAAUU,-0.559
12,UGACGAG,0.345
13,UCCCCCG,-0.5
14,AAAGCCU,-0.734
15,GGACCGA,0.297
16,GAAUACC,-0.304
17,GUAGCCU,-0.635
18,CCGAAUA,-0.613
19,UUAUUUG,-0.763
20,UCCGAAG,-0.34
21,GAUUUCC,-0.657
22,UUUUUCG,-0.61
23,UGGGUAC,2.59
24,GCAGACU,-0.395
25,GCUGGAA,0.472

row,Sequence,RNAcompete 7-mer binding Z-score
1,UACUGGC,-0.73
2,GUCCGUA,-0.471
3,GGAACUU,0.0058
4,AAUGCGU,-0.0161
5,UAUGAGG,1.54
6,GGAUGCC,0.552
7,AGAACCG,-0.661
8,UAGGUUA,1.01
9,AAGUGCU,-0.358
10,UGGAGUU,1.53
11,UACGUCA,-0.271
12,GAAUUUA,-0.34
13,AUUACAG,0.21
14,ACUCACA,-0.686
15,CGUGACC,-0.595
16,UGAUUGG,1.29
17,GGGCACU,0.782
18,CGGCAGU,0.141
19,UGAAGUG,1.12
20,GUAUUCU,-0.657
21,UUACGCC,-0.715
22,GCGCGGU,1.03
23,GCAUCAG,0.301
24,GUCCCCC,-0.22
25,GACUAGC,-0.446

row,Sequence,RNAcompete 7-mer binding Z-score
1,CGACCGC,-0.774
2,GGGAAGA,3.65
3,CCGGUAC,-0.333
4,UCUUGGC,-0.664
5,GGGGGGC,2
6,UCAUUUC,-0.846
7,GGUAGAU,1.38
8,CUGAAGA,-0.402
9,GCAUUCU,-0.777
10,GGGCUUC,0.432
11,GUUCUUG,-0.599
12,AGUACCC,-0.628
13,UUUCUGA,-0.683
14,GCAUAUC,-0.468
15,AAGAAUA,-0.307
16,GUCAUAA,-0.384
17,CUAUUAC,-0.657
18,GAGUAUC,-0.238
19,ACCCUCG,-0.741
20,UACGAUC,-0.61
21,CUCCAGC,-0.726
22,AUGAGUC,-0.00512
23,AAUGUUU,-0.391
24,UCCCGAG,-0.533
25,ACAGUAA,0.0677

row,Sequence,RNAcompete 7-mer binding Z-score
1,AGGCGCA,0.181
2,CAGGGCC,0.49
3,UUGAGUU,-0.176
4,CUAAACU,-0.588
5,GUAUUCA,-0.282
6,GACGACU,-0.592
7,CUCUUCU,-0.836
8,CGGUAAU,0.224
9,UCUGUAA,-0.664
10,UAAUUAA,-0.595
11,UACCCUU,-0.857
12,GAGACUU,-0.533
13,CUCUAAC,-0.697
14,AUUGGCC,-0.289
15,CUCGGCC,-0.887
16,UGCUAGA,-0.333
17,CAACUAC,-0.628
18,ACGCAUA,-0.231
19,CGGCGUU,0.181
20,UUGUACA,-0.355
21,UGGGAGU,1.95
22,CGUUCGU,-0.377
23,CGUCGAA,-0.3
24,UUGAAGU,-0.253
25,ACGAACC,-0.49

row,Sequence,RNAcompete 7-mer binding Z-score
1,UGACGUC,-0.595
2,GCAUGUA,-0.246
3,CCGAAAC,-0.686
4,CCAGAUC,-0.544
5,AGAUUCU,-0.686
6,CGCUCAU,-0.759
7,GGUUUGC,0.538
8,UUCGUAG,-0.256
9,AGAUCCC,-0.912
10,UAUAAGG,1.46
11,CCUUAAU,-0.817
12,GACAAUA,0.0969
13,UAAAGCU,-0.726
14,CCGGGCG,0.803
15,CCCCGCC,-0.606
16,CCUGUUC,-0.857
17,AGCUUGA,-0.592
18,CACCCAA,-0.785
19,CGCUUCC,-0.737
20,AGCGUCC,-0.664
21,CCUCGAU,-0.814
22,GAUUACG,0.166
23,GGACUAG,0.705
24,CGGUUGG,1.91
25,GUGGAAA,2.46

row,Sequence,RNAcompete 7-mer binding Z-score
1,AGCAGGU,1.74
2,GUUAAAC,-0.00148
3,CACACGG,0.377
4,AGUCGCU,-0.246
5,UGUCGCU,-0.362
6,AUCGCGU,-0.482
7,UGUUCAC,-0.832
8,CUAUCUA,-0.683
9,UACUCGA,-0.675
10,UAGACUA,-0.497
11,CUUGGCA,-0.46
12,UUCCAGC,-0.715
13,CUCAAGU,-0.468
14,GAAAACG,0.752
15,CGUUCAG,-0.351
16,GCCCCCG,-0.271
17,AAUUCAA,-0.431
18,CUGGAGA,0.512
19,CUCUCAG,-0.683
20,ACACGGC,-0.0634
21,CGAAGAU,-0.428
22,UCAGUAC,-0.213
23,GCAAAGU,0.334
24,CACAAUU,-0.577
25,GAACACC,-0.5

row,Sequence,RNAcompete 7-mer binding Z-score
1,AUGGUUC,0.264
2,CACGCAA,-0.395
3,AGACGUG,0.101
4,AUUACCA,-0.628
5,GGCCCAU,-0.715
6,CGUUUCG,-0.588
7,ACCGUGA,-0.435
8,GUAAGGC,2.12
9,GUUUCCU,-0.632
10,UUAGACG,-0.107
11,CGGGCGU,1.22
12,GAAAGUG,1.69
13,GGCGACC,0.301
14,AUGACUA,-0.347
15,ACACGCC,-0.683
16,AUGAGCU,-0.0889
17,CACUUGA,-0.846
18,AGGCGAG,1.7
19,GCAUUAA,-0.391
20,GAAUCGG,1.71
21,ACACUCU,-0.908
22,AUUCCGC,-0.77
23,CCUCAUA,-0.832
24,CGAGUCU,-0.504
25,AAACGUU,-0.344

row,Sequence,RNAcompete 7-mer binding Z-score
1,CGAAACA,-0.355
2,CCCUGUC,-0.803
3,ACCAUAC,-0.653
4,UUCUCAU,-0.883
5,AGGAGAC,1.15
6,GAGGGGU,3.64
7,ACGCAUC,-0.653
8,CGAACGG,1.41
9,GAUCAGG,2.02
10,UUGAGCC,-0.683
11,UGAUAUC,-0.479
12,ACGAAUA,-0.238
13,ACCCUGA,-0.646
14,AUAUGAG,0.763
15,AACAACA,-0.027
16,AACACAA,-0.111
17,UGCCAGG,0.301
18,UUCAUUA,-0.439
19,UGGUAAC,1.03
20,CCGGCCU,-0.81
21,UUUAGCA,-0.49
22,GUCGCAC,-0.246
23,GGGUUUA,1.95
24,UUUAAUA,-0.573
25,UAGUCAG,0.119

row,Sequence,RNAcompete 7-mer binding Z-score
1,AAUUUGC,-0.814
2,UGAUAGG,2.37
3,GGGUUCC,0.811
4,CGUGUGG,1.22
5,CGAGUUA,-0.0306
6,CACGUUU,-0.952
7,ACGCGAG,-0.0415
8,ACCUCCG,-0.737
9,GCUGUGC,-0.267
10,AGGUACA,1.11
11,UUCCUGC,-0.81
12,CACAGAC,-0.0962
13,AUGACAC,-0.224
14,UAUUUAC,-0.872
15,CAUAGAU,-0.278
16,UUCGCAU,-0.73
17,GCUCCAG,-0.588
18,CAACAAA,-0.275
19,CCCGGCC,-0.799
20,CAGAUGC,-0.267
21,GCCACUA,-0.686
22,AUCGUCG,-0.293
23,AAUCAUA,-0.187
24,UUGUAGG,1.52
25,AUGAAAC,-0.34

row,Sequence,RNAcompete 7-mer binding Z-score
1,ACCUCAC,-0.748
2,AAUUGGA,1.41
3,ACGGUGA,1.28
4,UUAUUCA,-0.592
5,GUACACU,-0.286
6,UGGGCAG,2.27
7,GUACUAA,-0.162
8,AUCGACA,-0.195
9,AGUAUGU,0.0313
10,UACCCAU,-0.901
11,CUUGGAG,0.377
12,CGCAUAC,-0.577
13,CCUGUCU,-0.945
14,ACGUAUU,-0.515
15,UCAUCGU,-0.504
16,UCGUGCA,-0.61
17,CUAGAUG,-0.296
